In the supplement of paper PMC11417369:
This is one part of the list.

The sequences below were run on PfHDP1 homeodomain (GST-tagged) (assay: gcPBM binding intensity (ln(normalized median fluorescence intensity)); higher = stronger DNA binding).
Procedure, shortened: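 Alexa488 anti-GST antibody, scanned at 488 nm, detected GST-tagged P. falciparum DNA-binding domains that had been expressed in E. coli and incubated for 1 h on an Agilent 4 × 180k array. The array carried primer-extended double-stranded 36-bp intergenic genomic probes and negative controls. Binding intensity is the highest Masliner-normalised natural-log median intensity across replicate spots of either orientation of each probe.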

Sequence	gcPBM binding intensity (ln)
TATGTTTAAATATATTGTACGCACGTATGTTTTTAA [XGTACX_site1108]	6.62
TTTTAGTTAATTCATGCATGTAAAGTTTTATTTATA [TGCATGCA_site252]	6.33
AAAAAAAAAAAAAAAGTACACACTTTTGCGTACATG [CACACA_site3097]	6.49
ATATTAATTTTTATTACACACTCTCAATTTTTATTT [CACACA_site58]	6.76
AAAATATACATAAACACACACAAAACGTTTAAGAAA [CACACA_site1071]	7.11
GTTTAACTGTTTTATACACACAATGTATCCAATAAA [CACACA_site5612]	7
ATGTCTATATATTAAGGTACACATATATGCTATTCA [XGTACX_site6008]	6.48
ATACATATTAACAAGGTGCAAATGGATTTCATAAAA [GTGCAC_site9775]	9.11
TTTTTTTTTTTGTGAGTGCACGTATGAAGAGAAAAA	9.19
TTATGGAACCCCATTCGTACATAAATATTTTATATA [XGTACX_site7112]	6.16
GTATAATATGAACACACACACACACCCAAAAAAAAA [CACACA_site5152]	6.85
TATATAACTTTATTTTTCTTTACTTATTTTATTTTA [GTGCAC_negctrl_site66]	6.28
CTAGCAAATACATACACACACACACGGATACCTATA [CACACA_site7609]	6.93
ATATATATATATATATGTACATATTATTAATAATAT [XGTACX_site6667]	9.32
TTTTTTAAAATATATATAATGAATTTTTTTTTTTTT [CACACA_negctrl_site1577]	5.81
AAAGAAAAAAAAAAAAGTACATAAATATAAAAAGAA [XGTACX_site6753]	6.65
AATTGTTCGATATATGCACACAGTTTTGTTATTTTT [CACACA_site1615]	9.38
TATTTATATTTATATACACACTATATAACTCAAACA [CACACA_site6611]	6.57
TATATACAAATATGCTGTACAAAAAAAAAAAAAAAA [XGTACX_site4732]	6.33
TATAATAATAATGATAGTACGTATGAGTTCAAAAAA [XGTACX_site608]	6.47
CGGTATTTTTTAATTTGTACGCATATACAATAATTA [XGTACX_site8603]	6.51
TTTTATTATTTATATACACACTTGCTGAAATGTTAT [CACACA_site5919]	6.87
GATATGATTACCTTATGGTGTTTTTGATGGATAGTT [CACACA_negctrl_site1504]	6.26

Sequence	gcPBM binding intensity (ln)
TTTTTTATTTTAATGTATTATTTTTATGTAATATAT [GTGCAC_negctrl_site391]	6.3
TACTTACAGATAATAACACACAAGAAAAAAATAAAA [CACACA_site4716]	6.61
TATATATATATCAAGTGTACTTGTGTTTGTAATATT [XGTACX_site8854]	8.6
AATATTTATGGGTGCACACAAACATACAGATATATA [CACACA_site5810]	10.3
AAAAAACAGACATACACACACACACGGATATTTATA [CACACA_site7570]	6.7
TACAAATATGGACACACACACATATTTATATTTATA [CACACA_site6420]	6.75
ATATAAATGTATATGACACACATATATATATATATA [CACACA_site889]	9.54
TTTTTTTTGTTGTTGTTGCACTTGATAGGAATGGCT [GTGCAC_site9701]	7.73
CCATTTACAAAAAGGAGTACACAAATATATGTTTAA [XGTACX_site649]	6.38
AAAAAAAACAGACACACACACAAATACATACACAAA [CACACA_site705]	6.97
ATGTTGCACAATGTTACACACACAATATATATCGTT [CACACA_site4833]	10.7
TATATTAGAAGAAATTCACACATTCATGTAATCTTA [CACACA_site4706]	5.78
AAAAAAATAAAAAGGAACGTCTATAGTTAATTTATT [CACACA_negctrl_site919]	6.34
TTCTTATATAAATACACACACAAAATATCTACAATG [CACACA_site4568]	6.88
TTTGAATATATAAATATGCACACTTCTATTATAAAT [CACACA_site3359]	7.91
TATTATTTTTCCTAATGTACAAAATATATATTTTTA [XGTACX_site2727]	6.56
TATATATATATATTTACACACATTCATATAAATTCA [CACACA_site3532]	8.88
GCCTACAGACTTAGTAGTACATGAGAAGATATATAT [XGTACX_site2269]	6.58
AATATGAACGGACACACACACACAAAAAAAAAAAAA [CACACA_site5154]	6.48
AAAATTTTTAAATATTGTACTATTTATTTTTAGCAT [XGTACX_site6190]	6.6
AAAATAAATAAATACACACACACGAATATATATATA [CACACA_site1683]	8.57
TTTTAAAAATAATAAATAAATAAAATTGAAGTTCCA [CACACA_negctrl_site305]	6.03
TATATTTATTTATATACACACACTTGTATAAAAAAT [CACACA_site2036]	6.74

Sequence	gcPBM binding intensity (ln)
TATCTATATGGGAACACACTCATAAATATATATCTA [CACACA_site4815]	6.49
TATATCAAAATACATACACACATTTGTATATACATT [CACACA_site2696]	6.75
TTAAATATTTTTAGAGTGCATGTAATAAAAATATAA [GTGCAC_site9414]	7.72
TATATACAGAAACACACACACACATATATATATATA [CACACA_site2247]	9.07
TATAAAAATATTTAATGTACGAATCTGTGATATATC [XGTACX_site7881]	6.3
AAAATACACGCATACACACACACACGCGCACATATA [CACACA_site6448]	7.53
ATTATTAAAAGAAGAAGTACTTATATATTAATATTA [XGTACX_site5227]	6.65
TTTTCATGTTGTAAAGCATGCTTTACTCATAAAAAA [TGCATGCA_site917]	6.38
CTAAACAGAATTATCACACATATAAATATAAACATA [CACACA_site4560]	6.35
ATATATTACATATGTGTGCACGTTCCAAAATTTTTA	10
GGTCTTATTTTTAGTAGTACAAATATAATATACATA [XGTACX_site6483]	6.52
TTTTTTTTTTTTTGTTGTACCCATCATATATACATA [XGTACX_site4342]	6.5
TTATTTTATTTTGAAGCATGCTTTTTGCTGTGATAA [TGCATGCA_site278]	6.37
AAATAATATTTATACACACACACATATTTATATACA [CACACA_site6403]	6.92
TTATGCGTTTGCAAAAGTACATATCTATTATTTTTA [XGTACX_site7609]	8.78
TTTTTAATTAACTTTTTATAAATAAATAAAAATATA [GTGCAC_negctrl_site334]	5.84
TTCACATACAGAAACACACACATATTTATAAATTAA [CACACA_site7699]	6.9
AAAAGAAAATTAAATTAACACACATAAATATATATA [CACACA_site8482]	6.7
ATTGTATATGTATATGCACACAATATATGTACTTAT [CACACA_site2611]	9.66
GATATATTATTTGAATGTACATATTATATTTATATT [XGTACX_site907]	6.37
TAACATATTATATATACATGCATACGTGAACTAATC [TGCATGCA_site888]	6.66
GTTAGAATTGTTAGGTGGTCAAAAAGGAGAAAAAAA [XGTACX_site2086]	6.64
TTTTTTTAGTTAATTAAACACACAAAAAAAAAAATA [CACACA_site9301]	6.15

Sequence	gcPBM binding intensity (ln)
CAACTAACATATATTCAACACACATATACCTTCAAC [CACACA_site8988]	6.43
ATAATATCATAATATTGTACATATTTTATTTTAAAT [XGTACX_site1115]	6.21
TTTTTTGTTTGAATGGTGCATTTTGTAATTATATTT	9.66
TTTTGATATAAATATTAGATTAATAAATAAAAAAAT [CACACA_negctrl_site1635]	6.28
TTAAAATAGATATTAGTGCAAAAAAAAAAAAATAAA	9.63
CTTAAATTGAAATGTTGTACAAAGTAAAAACAATGA [XGTACX_site2123]	6.59
ATATAATGTTGTAATAGTACTTTTTTCATATAAATA [XGTACX_site2666]	6.51
AAAGAATACAAAATTGCACACATATTGTGAAAATGT [CACACA_site9327]	9.59
TATTAACACAATAGCGCACACTTTTAATATTTTATA [CACACA_site1617]	7.35
TATTTATATATATGATGTACATAAGGTGTAATGTTA [XGTACX_site5591]	7.26
ATATATATTTAATGTTGTACATAAAAAATATATAAA [XGTACX_site7774]	5.94
TATTTACATACAAAATGTACAAAAATATATTTTTTT [XGTACX_site888]	6.45
TACATGAATATTTATACATGCACACTAAAATAAAGA [TGCATGCA_site611]	8.2
ATCTCTTATATATTCACACACATATATATAATTATA [CACACA_site1502]	7.27
AAATATAATAACGAACGTACTTATTATAATTTGTAA [XGTACX_site2342]	6.28
TATAATTTAACGACATGTACATATAAAAAAATATTT [XGTACX_site2395]	6.68
CACCCCCACAGACACACACACACACCGATATATATA [CACACA_site8010]	7.07
CATATTTTATTATATACATGCAATTTTAATATATAT [TGCATGCA_site544]	6.63
TGTAGATTTTGTAACACACACATATAAATACCTATA [CACACA_site7183]	6.61
TTATTTATATTTTTTTGTACACATATTGTATACATA [XGTACX_site1178]	6.85
